Reference: patent US20120178908A1 (Novo Nordisk, published 2012)

T1: TLT-1 receptor on the surface of activated human platelets (human, UniProt Q86YW5 16-311)
T1 sequence: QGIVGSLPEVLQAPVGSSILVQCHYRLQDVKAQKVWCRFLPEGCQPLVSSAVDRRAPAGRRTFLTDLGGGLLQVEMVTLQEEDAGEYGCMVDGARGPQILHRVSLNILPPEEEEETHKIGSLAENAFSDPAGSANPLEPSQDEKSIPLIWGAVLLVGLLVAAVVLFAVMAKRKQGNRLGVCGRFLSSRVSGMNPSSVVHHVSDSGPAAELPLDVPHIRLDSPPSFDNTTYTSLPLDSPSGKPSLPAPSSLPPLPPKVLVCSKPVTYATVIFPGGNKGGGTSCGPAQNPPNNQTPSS


Molecular target: T1, TLT-1 receptor on the surface of …
Assay: cell-based or functional assay

Binder	FVII-mediated FXa generation % Activity activated plts (n 2)	FVIIa-mediated FXa generation % Activity activated plts (n 1)	FVII-mediated FXa generation % Activity activated plts (n 1)	FVIIa-mediated FXa generation % Activity activated plts (n 2)
mAb 0012-(TF-L4b-LC)2;HC2 (other) TF-linker-light chain: SGTTNTVAAYNLTWKSTNFKTILEWEPKPVNQVYTVQISTKSGDWKSKCFYTTDTECDLTDEIVKDVKQTYLARVFSYPAGNVESTGSAGEPLYENSPEFTPYLETNLGQPTIQSFEQVGTKVNVTVEDERTLVRRNNTFLSLRDVFGKDLIYTLYYWKSSSSGKKTAKTNTNEFLIDVDKGENYCFSVQAVIPSRTVNRKSTDSPVECMGQEKGEFREGGGGSGGGGSGGGGSGSMKLPVGLLVLMFWIPASSSDVVMTQTPLSLPVSLGDQASISCRSSQSLVHRNGNTYFHWCLQKPGQSPKLLIYKVSNRFSGVPDRFSGSGSGTDFTLKISRVEAEDLGVYFCSQSTHVPYTFGGGTKLEIKRTVAAPSVFIFPPSDEQLKSGTASVVCLLNNFYPREAKVQWKVDNALQSGNSQESVTEQDSKDSTYSLSSTLTLSKADYEKHKVYACEVTHQGLSSPVTKSFNRGEC heavy chain: EVKLLESGGGLVQPGGSLKLSCAASGFDFSRYWMTWVRQAPGKGLEWIGEINPDSSTINYTPSLKDKFIISRDNAKNTLYLQMSEVRSEDTALYYCASGVFTSWGQGTLVTVSAASTKGPSVFPLAPCSRSTSESTAALGCLVKDYFPEPVTVSWNSGALTSGVHTFPAVLQSSGLYSLSSVVTVPSSSLGTKTYTCNVDHKPSNTKVDKRV[human IgG4 Fc with S228P (EU numbers) omitted]	–	–	3%	–
mAb 0023-(HC-L4a-TF)2;(LC-HPC4)2 (other) heavy chain-linker-TF: EVRLVESGGGLVQPGGSLKLSCATSGFTFSDYFMYWIRQTPEKRLEWVAYISNGGDSSSYPDTVKGRFTISRDNAKNTLYLQMSRLKSEDTAMYYCATNKNWDDYYDMDYWGQGTSVTVSSASTKGPSVFPLAPCSRSTSESTAALGCLVKDYFPEPVTVSWNSGALTSGVHTFPAVLQSSGLYSLSSVVTVPSSSLGTKTYTCNVDHKPSNTKVDKRV[human IgG4 Fc with S228P (EU numbers) omitted]GSGGGGSGGGGSGGGGSSGTTNTVAAYNLTWKSTNFKTILEWEPKPVNQVYTVQISTKSGDWKSKCFYTTDTECDLTDEIVKDVKQTYLARVFSYPAGNVESTGSAGEPLYENSPEFTPYLETNLGQPTIQSFEQVGTKVNVTVEDERTLVRRNNTFLSLRDVFGKDLIYTLYYWKSSSSGKKTAKTNTNEFLIDVDKGENYCFSVQAVIPSRTVNRKSTDSPVECMGQEKGEFRE light chain-HPC4: DIVVSQSPSSLAVSAGEKVTMSCKSSQSLLNSRTRKNYLAWYQQKPGQSPKLLIYWASTRESGVPDRFTGSGSGTDFTLTISSVQAEDLAVYYCKQSYNLLTFGAGTKLELKRTVAAPSVFIFPPSDEQLKSGTASVVCLLNNFYPREAKVQWKVDNALQSGNSQESVTEQDSKDSTYSLSSTLTLSKADYEKHKVYACEVTHQGLSSPVTKSFNRGECEDQVDPRLIDGK	–	14%	4%	–
mAb 0023-(LC-L4a-TF)2;HC2 (other) light chain-linker-TF: DIVVSQSPSSLAVSAGEKVTMSCKSSQSLLNSRTRKNYLAWYQQKPGQSPKLLIYWASTRESGVPDRFTGSGSGTDFTLTISSVQAEDLAVYYCKQSYNLLTFGAGTKLELKRTVAAPSVFIFPPSDEQLKSGTASVVCLLNNFYPREAKVQWKVDNALQSGNSQESVTEQDSKDSTYSLSSTLTLSKADYEKHKVYACEVTHQGLSSPVTKSFNRGECGSGGGGSGGGGSGGGGSSGTTNTVAAYNLTWKSTNFKTILEWEPKPVNQVYTVQISTKSGDWKSKCFYTTDTECDLTDEIVKDVKQTYLARVFSYPAGNVESTGSAGEPLYENSPEFTPYLETNLGQPTIQSFEQVGTKVNVTVEDERTLVRRNNTFLSLRDVFGKDLIYTLYYWKSSSSGKKTAKTNTNEFLIDVDKGENYCFSVQAVIPSRTVNRKSTDSPVECMGQEKGEFRE heavy chain: EVRLVESGGGLVQPGGSLKLSCATSGFTFSDYFMYWIRQTPEKRLEWVAYISNGGDSSSYPDTVKGRFTISRDNAKNTLYLQMSRLKSEDTAMYYCATNKNWDDYYDMDYWGQGTSVTVSSASTKGPSVFPLAPCSRSTSESTAALGCLVKDYFPEPVTVSWNSGALTSGVHTFPAVLQSSGLYSLSSVVTVPSSSLGTKTYTCNVDHKPSNTKVDKRV[human IgG4 Fc with S228P (EU numbers) omitted]	–	–	5%	–
mAb 0051-(HC-L4a-TF)2;(LC-HPC4)2 (other) heavy chain-linker-TF: QVQLEQSGAELVRPGVSVKISCKGSGYTFTDYSMHWVKQSHAKSLEWIGVISTYYGDVRYNQKFKGKATMTVDKSSSTAYMALARLTSEDSAIYYCARAPMITTGAWFAYWGQGTLVTVSAASTKGPSVFPLAPCSRSTSESTAALGCLVKDYFPEPVTVSWNSGALTSGVHTFPAVLQSSGLYSLSSVVTVPSSSLGTKTYTCNVDHKPSNTKVDKRV[human IgG4 Fc with S228P (EU numbers) omitted]GSGGGGSGGGGSGGGGSSGTTNTVAAYNLTWKSTNFKTILEWEPKPVNQVYTVQISTKSGDWKSKCFYTTDTECDLTDEIVKDVKQTYLARVFSYPAGNVESTGSAGEPLYENSPEFTPYLETNLGQPTIQSFEQVGTKVNVTVEDERTLVRRNNTFLSLRDVFGKDLIYTLYYWKSSSSGKKTAKTNTNEFLIDVDKGENYCFSVQAVIPSRTVNRKSTDSPVECMGQEKGEFRE light chain-HPC4: SIVMTQTPKFLLVSAGDRVTITCKASQSVSNDVAWYQQKPGQSPKLLINYASSRYTGIPDRFTGSGYGTDFTFTISTVQAEDLAVYFCQQDYSSPYTFGGGTKLEIERTVAAPSVFIFPPSDEQLKSGTASVVCLLNNFYPREAKVQWKVDNALQSGNSQESVTEQDSKDSTYSLSSTLTLSKADYEKHKVYACEVTHQGLSSPVTKSFNRGECEDQVDPRLIDGK	–	15%	18%	–

Second part, the binder after the results:

FVII-mediated FXa generation % Activity activated plts (n 2)	FVIIa-mediated FXa generation % Activity activated plts (n 1)	FVII-mediated FXa generation % Activity activated plts (n 1)	FVIIa-mediated FXa generation % Activity activated plts (n 2)	Binder
2%	7%	–	–	mAb 0052-(LC-L4a-TF)2;HC2 (other) light chain-linker-TF: DIQMTQTTSSLSASLGDRVTISCRASQDISNYLNWYQQKPDGTVKLLIFYTSRLHSGVPSRFSGSGSGTDYSLTISNLEPEDIATYYCQQDTKLPYTFGGGTKLEMKRTVAAPSVFIFPPSDEQLKSGTASVVCLLNNFYPREAKVQWKVDNALQSGNSQESVTEQDSKDSTYSLSSTLTLSKADYEKHKVYACEVTHQGLSSPVTKSFNRGECGSGGGGSGGGGSGGGGSSGTTNTVAAYNLTWKSTNFKTILEWEPKPVNQVYTVQISTKSGDWKSKCFYTTDTECDLTDEIVKDVKQTYLARVFSYPAGNVESTGSAGEPLYENSPEFTPYLETNLGQPTIQSFEQVGTKVNVTVEDERTLVRRNNTFLSLRDVFGKDLIYTLYYWKSSSSGKKTAKTNTNEFLIDVDKGENYCFSVQAVIPSRTVNRKSTDSPVECMGQEKGEFRE heavy chain: QVQLQQSGAEPMKPGASVKISCKATGYTFSSHWIEWIKQRPGHGLEWIGEILPGSGNTNYNEKFKGKATFTADTSSNTAYMQLSSLTSEDSAVYCCARGYYGLNYDWYFDVWGAGTTVTVSSASTKGPSVFPLAPCSRSTSESTAALGCLVKDYFPEPVTVSWNSGALTSGVHTFPAVLQSSGLYSLSSVVTVPSSSLGTKTYTCNVDHKPSNTKVDKRV[human IgG4 Fc with S228P (EU numbers) omitted]
12%	–	–	15%	mAb 0051-(LC-L4a-TF)2;HC2 (other) light chain-linker-TF: SIVMTQTPKFLLVSAGDRVTITCKASQSVSNDVAWYQQKPGQSPKLLINYASSRYTGIPDRFTGSGYGTDFTFTISTVQAEDLAVYFCQQDYSSPYTFGGGTKLEIERTVAAPSVFIFPPSDEQLKSGTASVVCLLNNFYPREAKVQWKVDNALQSGNSQESVTEQDSKDSTYSLSSTLTLSKADYEKHKVYACEVTHQGLSSPVTKSFNRGECGSGGGGSGGGGSGGGGSSGTTNTVAAYNLTWKSTNFKTILEWEPKPVNQVYTVQISTKSGDWKSKCFYTTDTECDLTDEIVKDVKQTYLARVFSYPAGNVESTGSAGEPLYENSPEFTPYLETNLGQPTIQSFEQVGTKVNVTVEDERTLVRRNNTFLSLRDVFGKDLIYTLYYWKSSSSGKKTAKTNTNEFLIDVDKGENYCFSVQAVIPSRTVNRKSTDSPVECMGQEKGEFRE heavy chain: QVQLEQSGAELVRPGVSVKISCKGSGYTFTDYSMHWVKQSHAKSLEWIGVISTYYGDVRYNQKFKGKATMTVDKSSSTAYMALARLTSEDSAIYYCARAPMITTGAWFAYWGQGTLVTVSAASTKGPSVFPLAPCSRSTSESTAALGCLVKDYFPEPVTVSWNSGALTSGVHTFPAVLQSSGLYSLSSVVTVPSSSLGTKTYTCNVDHKPSNTKVDKRV[human IgG4 Fc with S228P (EU numbers) omitted]
–	10%	7%	–	mAb 0052-(HC-L4a-TF)2;(LC-HPC4)2 (other) heavy chain-linker-TF: QVQLQQSGAEPMKPGASVKISCKATGYTFSSHWIEWIKQRPGHGLEWIGEILPGSGNTNYNEKFKGKATFTADTSSNTAYMQLSSLTSEDSAVYCCARGYYGLNYDWYFDVWGAGTTVTVSSASTKGPSVFPLAPCSRSTSESTAALGCLVKDYFPEPVTVSWNSGALTSGVHTFPAVLQSSGLYSLSSVVTVPSSSLGTKTYTCNVDHKPSNTKVDKRV[human IgG4 Fc with S228P (EU numbers) omitted]GSGGGGSGGGGSGGGGSSGTTNTVAAYNLTWKSTNFKTILEWEPKPVNQVYTVQISTKSGDWKSKCFYTTDTECDLTDEIVKDVKQTYLARVFSYPAGNVESTGSAGEPLYENSPEFTPYLETNLGQPTIQSFEQVGTKVNVTVEDERTLVRRNNTFLSLRDVFGKDLIYTLYYWKSSSSGKKTAKTNTNEFLIDVDKGENYCFSVQAVIPSRTVNRKSTDSPVECMGQEKGEFRE light chain-HPC4: DIQMTQTTSSLSASLGDRVTISCRASQDISNYLNWYQQKPDGTVKLLIFYTSRLHSGVPSRFSGSGSGTDYSLTISNLEPEDIATYYCQQDTKLPYTFGGGTKLEMKRTVAAPSVFIFPPSDEQLKSGTASVVCLLNNFYPREAKVQWKVDNALQSGNSQESVTEQDSKDSTYSLSSTLTLSKADYEKHKVYACEVTHQGLSSPVTKSFNRGECEDQVDPRLIDGK
